# Laboratory results reported in PubChem BioAssay AID1347417 (National Center for Advancing Translational Sciences (NCATS), 2020).
# The whole screen tested about 120,000 compounds, of which about 5,300 (4.4%) were called active. Inconclusive means that the source gave no clear call. Such entries were picked first, then a sample of the others. Calls come from the whole dose curve; as a rule, active = well fitted inhibition curve with a large enough effect; inconclusive = small, poorly fitted or top-dose-only effect; inactive = no such curve, though single readings can be large or run the other way. A potency beside an inconclusive call is a rough fit, not a confirmed value.
# Test: qHTS Primary assay for Inhibitors of Plasmodium falciparum Dd2 growth in vitro; note: nearly all actives have a fitted effect of over 65% in size;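 for activity, negative = inhibition: plate controls were DMSO vehicle for no effect and reference drug for full effect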
# Details: P. falciparum Dd2 growth, SYBR Green, 72 h; activity, negative = inhibition: at 28.9 µM (top of the series) unless noted; series mostly up to 28.9 µM
# Procedure, shortened: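 Infected erythrocytes (Dd2, 0.3% parasitemia, 2.5% hematocrit final) are added to compound in RPMI-1640/Albumax II medium, grown 72 h at 37C in low oxygen, then lysed with saponin/Triton-X containing SYBR Green and read by fluorescence.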
# Potency is the fitted concentration of half-maximal effect; tags give direction and shape of the fitted curve.
SMILES,Potency,"activity, negative = inhibition",outcome
COc1ccc(-c2cn3c(n2)sc2cc(C(=O)NCCC4=CCCCC4)ccc23)cc1,"inconclusive: 14.1 µM [inhibitor, single point]",,
CC(C)c1noc(-c2ccn3c(CNC(=O)c4ccccc4)nnc3c2)n1,"inconclusive: 8.91 µM [inhibitor, single point]",,
Cn1cc(-c2ccncc2)cc1C(=O)N1CCN(c2ccccc2Cl)CC1,"inconclusive: 2.82 µM [inhibitor, full curve]",,
CCOc1ccc(C2C(C(=O)Nc3ccccc3)=C(C)Nc3nc(-c4ccccc4)nn32)cc1OC (stereo unspecified),"inconclusive: 3.55 µM [inhibitor, full curve, poor fit]",,
COc1cccc(-c2csc(-c3c(N)c(C(=O)c4ccc5c(c4)OCO5)n4ccccc34)n2)c1,"inconclusive: 15.8 µM [inhibitor, single point]",,
O=C(Nc1cccc(C(F)(F)F)c1)N[C@H]1CO[C@H]2[C@@H]1OC[C@@H]2n1cc(CC2CCCCC2)nn1,"inconclusive: 17.8 µM [inhibitor, single point]",,
CCCCNC(=O)C1c2ccccc2C(=O)N(Cc2ccccc2)C12CCCC2 (stereo unspecified),,inactive: -6.44%,
COc1ccc(CCC(=O)N2CCC3(CC2)NC(=O)N(c2cccc(F)c2)N3)cc1,"inconclusive: 10 µM [inhibitor, single point]",,
COCC1CN(C(=O)COc2ccc(Cl)cc2C)CC12CCNCC2 (stereo unspecified),"inconclusive: 5.01 µM [inhibitor, partial curve, poor fit]",,
CC(C)(C)CC(=O)N1C[C@@H](NC(=O)Nc2ccc(F)cc2F)C[C@H]1C(=O)N[C@H](Cc1ccccc1)C(N)=O,,,inactive
Cn1cc(-c2cc(=O)c3ccnc(NCc4ccc5c(c4)OCO5)c3o2)cn1,"inconclusive: 8.91 µM [inhibitor, partial curve, poor fit]",,
Cc1cc(C)n(CCC(=O)N2[C@@H]3CC[C@H]2CC(NC(=O)c2ccc(F)cc2)C3)n1 (stereo partly specified),"inconclusive: 6.31 µM [inhibitor, partial curve]",,
Cc1noc(C)c1-c1cc2cc(C(C)C)oc2c(NCCN(C)C)n1,"inconclusive: 1.12 µM [inhibitor, partial curve, poor fit]",,
COc1cccc(CNC(=O)C2CCN(S(=O)(=O)c3c(C)noc3/C=C/c3cccs3)CC2)c1,active: 6.31 µM,,
COc1ccc(CN2Cc3[nH]cnc3C[C@H]2C(=O)NCc2ccc(Cl)cc2)c2ccccc12,,,inactive
Cc1noc([C@@H](C)NC(=O)C2CCCCC2)c1C(=O)O,,inactive: 5.79% [at 44.1 µM],
Cc1cc(C(F)(F)F)nn1CC(=O)N1CC(CO)C2(CCNCC2)C1 (stereo unspecified),,inactive: -3.63%,
COc1ccc(NC(=O)C2CCN(C3=NS(=O)(=O)C(c4ccc(C)c(C)c4)=C3C)CC2)c(OC)c1,,inactive: 1.23%,
COc1ccc(C2(C(=O)N3CCC([C@H]4[C@@H](OC)C(=O)N4C(C)C)CC3)CC2)cc1,,inactive: -9.19%,
NCC1CCCN(Cc2ccc(-c3nc(-c4ccncc4)cc(=O)[nH]3)cc2)C1 (stereo unspecified),"inconclusive: 17.8 µM [inhibitor, single point]",,
N#Cc1ccc(CN2CCC(N3Cc4ccccc4C3=O)CC2)cc1,"inconclusive: 1.26 µM [inhibitor, partial curve, poor fit]",,
COc1ccc(C(=O)N2CCCn3nc(C)c(-c4ccccc4Oc4ccccc4)c32)cn1,"inconclusive: 10 µM [inhibitor, partial curve, poor fit]",,

SMILES,Potency,"activity, negative = inhibition",outcome
Cc1ccc(NC(=O)N2CC3CCCN3c3ccccc32)cc1Cl (stereo unspecified),"inconclusive: 11.2 µM [inhibitor, single point]",,
O=C(Cn1ncc2c3ccccc3n(Cc3ccccc3F)c2c1=O)N1CCCCCC1,active: 10 µM,,
O=C(Nc1ccccc1)N1CCC(Oc2ncccc2C(=O)N2CCOCC2)C1 (stereo unspecified),,inactive: 16%,
COc1ccc(NC(=O)CCc2cc3cc(C)ccc3[nH]c2=O)c(OC)c1,"inconclusive: 7.94 µM [inhibitor, partial curve, poor fit]",,
CC(C)CCN(C(=O)Nc1ccc(Cl)c(Cl)c1)C1CCN(C(C)C)CC1,"inconclusive: 11.2 µM [inhibitor, partial curve, poor fit]",,
CC1(C)CNC(=O)c2nc(CCN3CCCc4ccccc43)[nH]c2C1,,inactive: -5.79%,
CC(=O)c1ccc(N2CCN(C(=O)c3cc(S(=O)(=O)N4CCCCCC4)cn3C)CC2)cc1,"inconclusive: 17.8 µM [inhibitor, single point]",,
C=CCN(C)CC[C@@H]1CC[C@H](O)[C@@H](C(=O)NC2CC2)O1,,inactive: 32.6% [at 44.1 µM],
COc1cccc(CN2CCCN(Cc3ccncc3)C(c3ccccc3)CC(=O)NCC2)c1 (stereo unspecified),active: 1.41 µM,,
Cn1c(CNC(=O)c2cc3c(s2)CN(C2CC2)C3)nc2ccccc21,"inconclusive: 12.6 µM [inhibitor, single point]",,
CN1CC(=O)N(C2CCNCC2)Cc2c(NCCCO)ncnc21,,inactive: -2.99%,
CN(C)C(=O)c1nc(-c2cc(Cl)cc(Cl)c2)c2ccccn12,,,inactive [at 44.1 µM]
CC(CCn1cccn1)NC(=O)c1csc2nc(-c3ccc(C(F)(F)F)cc3)cn12 (stereo unspecified),"inconclusive: 11.2 µM [inhibitor, single point]",,
COc1ccc(-c2noc(-c3cccn3CC(=O)N3CCC(C)CC3)n2)cc1F,"inconclusive: 17.8 µM [inhibitor, single point]",,
COCCO[C@H]1C(=O)N(C2CCN(C(=O)COc3ccccc3)CC2)[C@H]1c1ccncc1,"inconclusive: 1.26 µM [inhibitor, full curve, poor fit]",,
COc1ccc(CCNc2nc3c(-c4cccc(C(F)(F)F)c4)nnn3c3ccccc23)cc1OC,"inconclusive: 2.82 µM [inhibitor, partial curve, poor fit]",,
CC1=C[C@@H](CNC(=O)C(C)(C)C)[C@H](C(C)C)C[C@H]1Cc1nnc(-c2ccncc2)o1,,inactive: -9.87% [at 44.1 µM],
CCc1ncc(-c2c(-c3ccccc3)ncn2CCNc2cccnc2)cn1,"inconclusive: 10 µM [inhibitor, partial curve, poor fit]",,
O=C(c1ccc2c(c1)OCO2)N1CCn2c(nn(-c3ccc(C(F)(F)F)cc3)c2=O)C1,,inconclusive: -89.7% [inhibitor],
COc1nc2nc(CC3CC3)n(C)c2cc1-c1ccncc1,"inconclusive: 11.2 µM [inhibitor, partial curve, poor fit]",,
C=CCNC(=O)N[C@H]1CCN(C(=O)CSC)[C@@H]1C(=O)N[C@H](Cc1ccccc1)C(N)=O,,inactive: 12.3%,
COC(=O)[C@@H]1Cc2ncn(Cc3ccccc3)c2CN1S(=O)(=O)Cc1ccccc1,active: 11.2 µM,,

SMILES,Potency,"activity, negative = inhibition",outcome
CC(C)CCN(CCC(=O)NCCc1ccccc1)C(=O)c1ccoc1,,inactive: -4.98%,
O=C(NC1CCc2nn(CC3CC3)c(=O)n2CC1)c1cc2ccccc2[nH]1 (stereo unspecified),"inconclusive: 8.91 µM [inhibitor, single point]",,
Cc1cccc(NC(=O)Cn2c(N3CCc4ccccc4C3)nc(C)cc2=O)c1,,inactive: -25.2%,
COc1cc(Nc2ncc3c(n2)CCN(Cc2ccc(OC(C)C)c(OC)c2)C3)cc(OC)c1,,,inactive
CC(=O)N(C1CC1)C1CCOC2(CCN(C(=O)Cn3c(=O)oc4ccccc43)CC2)C1 (stereo unspecified),"inconclusive: 20 µM [inhibitor, single point]",,
CC(=O)N1CCC([C@@H]2CN(Cc3cc(F)c(F)cc3F)C[C@H]2CO)CC1,"inconclusive: 10 µM [inhibitor, single point]",,
CCOc1ccc(NC(=O)c2oc3ccccc3c2NC(=O)C(C)(C)C)cc1,"inconclusive: 17.8 µM [inhibitor, single point]",,
COCc1cc(C)nc2sc3c(c12)NC(c1ccccc1C(=O)O)N(c1cccc(C(F)(F)F)c1)C3=O (stereo unspecified),"inconclusive: 17.8 µM [inhibitor, single point]",,
Cc1ccc(S(=O)(=O)c2nc(-c3cccc(Br)c3)oc2N2CCCCCC2)cc1,"inconclusive: 17.8 µM [inhibitor, single point]",,
COc1ccc(CN2Cc3cc(NC(=O)c4cc(OC)cc(OC)c4)ccc3OC(C)C2=O)cc1 (stereo unspecified),"inconclusive: 2.24 µM [inhibitor, single point]",,
O=C(NCc1ccc(C(F)(F)F)cc1)C1CN(c2ccc(Cl)cc2)C(=O)N1 (stereo unspecified),,inactive: -7.44%,
O=C(NCc1cccc(F)c1)N1CCC(Oc2ncccc2C(=O)N2CCOCC2)C1 (stereo unspecified),,inactive: 12%,
COc1cccc(CCC(=O)N2CCC3(CC2)NC(=O)N(c2cccc(F)c2)N3)c1,"inconclusive: 11.2 µM [inhibitor, single point]",,
CCCN(C)C(=O)CC1Sc2ncccc2N(CCC)C1=O (stereo unspecified),,inactive: 5.05%,
COc1ccc(OC)c(NC(=O)C2CCCCC(=O)N2)c1 (stereo unspecified),,inactive: -13.3%,
Cc1c(CNC(C)CCc2ccccc2)c(C(=O)O)c(C)n1Cc1ccc(F)cc1 (stereo unspecified),"inconclusive: 10 µM [inhibitor, single point]",,
O=C(c1ccncc1)N1CCC(n2c(=O)[nH]c3ccccc32)CC1,,inactive: 8.63% [at 44.1 µM],
O=C(c1cccc2[nH]ccc12)N1C[C@@H](CO)[C@H](c2ccccn2)C1,,inactive: 9.59%,
COc1cc(C(=O)NC(c2ccccc2Cl)c2cc(Cl)c3cccnc3c2O)cc(OC)c1OC (stereo unspecified),"inconclusive: 3.98 µM [inhibitor, single point]",,
COc1ccc(NC(=O)c2cc3n(n2)CC(c2ccc(Cl)cc2)OC3)cc1Cl (stereo unspecified),"inconclusive: 0.282 µM [inhibitor, full curve, poor fit]",,
COc1ccc(C(=O)N[C@@H]2CN(C(=O)NC3CCCCC3)CCC[C@H]2O)cc1,"inconclusive: 31.6 µM [inhibitor, single point]",,
O=C(c1cccc2nccnc12)N1CCC2(CC1)CC(N1CCCC1)CCO2 (stereo unspecified),,inactive: 9.35%,
